{"source": "the supplement of paper PMC4495339", "note": "The other results are listed elsewhere or left out. Reporter virus signal in Vero cells at 10 µM drug, 24 h, as % of DMSO wells; lower = more inhibition (cell loss is not separated). No active / inactive call. One pass, one plate of the library."}
{"system": "Rift Valley fever virus MP-12 vaccine strain (luciferase reporter) in Vero cells", "test": "reporter virus infection (Renilla luciferase) relative to DMSO control (% of DMSO); higher = less inhibition of virus replication", "conditions": "10 µM; time (h post infection): 24", "protocol": "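Vero cells were pretreated for 1 h with 10 µM drug and kept in drug after infection with the reporter virus; luciferase at 24 h as % of DMSO wells. One pass, one plate of the library.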"}
{"smiles": "Cc1nc2n(c(=O)c1CCN1CCC(c3noc4cc(F)ccc34)CC1)CCCC2", "note": "[Risperidone (Risperdal)]", "reporter virus infection": 66.1}
{"smiles": "Nc1ccn([C@@H]2O[C@H](CO)[C@@H](O)[C@@H]2O)c(=O)n1", "note": "[Cytarabine]", "reporter virus infection": 60.2}
{"smiles": "C[C@H]1C[C@H]2[C@@H]3CCC4=CC(=O)C=C[C@]4(C)[C@H]3C(=O)C[C@]2(C)[C@@]1(O)C(=O)CO", "note": "[Betapar (Meprednisone)]", "reporter virus infection": 101}
{"smiles": "COc1cnc(NS(=O)(=O)c2ccc(N)cc2)nc1", "note": "[Sulfameter (Bayrena)]", "reporter virus infection": 67.1}
{"smiles": "CC1Cc2ccccc2N1NC(=O)c1ccc(Cl)c(S(N)(=O)=O)c1", "note": "(stereo not drawn) [Indapamide (Lozol)]", "reporter virus infection": 66.4}
{"smiles": "N[C@@H](Cc1ccc(O)c(O)c1)C(=O)O", "note": "[Levodopa (Sinemet)]", "reporter virus infection": 93.2}
{"smiles": "CS(=O)(=O)OCCCCOS(C)(=O)=O", "note": "[Busulfan (Myleran, Busulfex)]", "reporter virus infection": 82.9}
{"smiles": "C[C@H](CCC(=O)O)[C@H]1CC[C@H]2[C@@H]3[C@@H](O)C[C@@H]4C[C@H](O)CC[C@]4(C)[C@H]3CC[C@]12C", "note": "[Ursodiol (Actigal Urso)]", "reporter virus infection": 99.1}
{"smiles": "NC(=O)N1c2ccccc2C=Cc2ccccc21", "note": "[Carbamazepine (Carbatrol)]", "reporter virus infection": 88.3}
{"smiles": "CN1C(C(=O)Nc2ccccn2)=C(O)c2ccccc2S1(=O)=O", "note": "[Piroxicam (Feldene)]", "reporter virus infection": 100}
{"smiles": "Oc1ccc(OCc2ccccc2)cc1", "note": "[Monobenzone (Benoquin)]", "reporter virus infection": 74.1}
{"smiles": "O=C(c1ccccc1)c1ccc2n1CCC2C(=O)O", "note": "(stereo not drawn) [Ketorolac (Toradol)]", "reporter virus infection": 92.1}
{"smiles": "CCOC(=O)O[C@]1(C(=O)OCCl)CC[C@H]2[C@@H]3CCC4=CC(=O)C=C[C@]4(C)[C@H]3[C@@H](O)C[C@@]21C", "note": "[Loteprednol etabonate]", "reporter virus infection": 46.2}
{"smiles": "Cc1cccc(Nc2ccncc2S(=O)(=O)NC(=O)NC(C)C)c1", "note": "[Torsemide (Demadex)]", "reporter virus infection": 94.1}
{"smiles": "O=C1[C@H](CC[C@H](O)c2ccc(F)cc2)[C@@H](c2ccc(O)cc2)N1c1ccc(F)cc1", "note": "[Ezetimibe (Zetia)]", "reporter virus infection": 91.8}
{"smiles": "CC(=O)Oc1ccccc1C(=O)Nc1ncc([N+](=O)[O-])s1", "note": "[Nitazoxanide (Alinia, Annita)]", "reporter virus infection": 26.5}
{"smiles": "Nc1ccc(O)c(C(=O)O)c1", "note": "[Mesalamine (Lialda)]", "reporter virus infection": 80.2}
{"smiles": "NCCCC(O)(P(=O)(O)O)P(=O)(O)O", "note": "[Alendronate (Fosamax)]", "reporter virus infection": 74.5}
{"smiles": "CN(C)CCc1c[nH]c2ccc(C[C@H]3COC(=O)N3)cc12", "note": "[Zolmitriptan (Zomig)]", "reporter virus infection": 73.4}
{"smiles": "CN(C/C=C/C#CC(C)(C)C)Cc1cccc2ccccc12", "note": "[Terbinafine (Lamisil, Terbinex)]", "reporter virus infection": 82.8}
{"smiles": "Cc1ccccc1N1C(=O)c2cc(S(N)(=O)=O)c(Cl)cc2NC1C", "note": "(stereo not drawn) [Metolazone (Zaroxolyn)]", "reporter virus infection": 71.2}
{"smiles": "Nc1ccn([C@H]2CC[C@@H](CO)O2)c(=O)n1", "note": "[Zalcitabine]", "reporter virus infection": 70.3}
{"smiles": "Nc1nc2ccc(OC(F)(F)F)cc2s1", "note": "[Riluzole (Rilutek)]", "reporter virus infection": 67.4}
{"smiles": "COC(=O)[C@H]1[C@H]2C[C@@H]3c4[nH]c5cc(OC)ccc5c4CCN3C[C@H]2C[C@@H](OC(=O)c2cc(OC)c(OC)c(OC)c2)[C@@H]1OC", "note": "[Reserpine]", "reporter virus infection": 12.2}
{"smiles": "Cc1cnc(C(=O)NCCc2ccc(S(=O)(=O)NC(=O)NC3CCCCC3)cc2)cn1", "note": "[Glipizide (Glucotrol)]", "reporter virus infection": 94.8}
{"smiles": "C#C[C@]1(O)CC[C@H]2[C@@H]3CCc4cc(O)ccc4[C@H]3CC[C@@]21C", "note": "[Ethinyl Estradiol]", "reporter virus infection": 68.3}
{"smiles": "CC(C)Cc1ccc(C(C)C(=O)O)cc1", "note": "(stereo not drawn) [Ibuprofen (Advil)]", "reporter virus infection": 84.6}
{"smiles": "Oc1ncnc2[nH]ncc12", "note": "[Allopurinol (Zyloprim)]", "reporter virus infection": 77}
{"smiles": "Nc1ncnc2c1ncn2[C@@H]1O[C@H](CO)[C@@H](O)[C@H]1O", "note": "[Adenosine (Adenocard)]", "reporter virus infection": 78.9}
{"smiles": "Cc1nc2n(c(=O)c1CCN1CCC(c3noc4cc(F)ccc34)CC1)CCCC2O", "note": "(stereo not drawn) [Paliperidone (Invega)]", "reporter virus infection": 102}
{"smiles": "COc1ccc2c(c1)c(CC(=O)O)c(C)n2C(=O)c1ccc(Cl)cc1", "note": "[Indomethacin (Indocid, Indocin)]", "reporter virus infection": 117}
{"smiles": "Cc1ccc(C)c(OCCCC(C)(C)C(=O)O)c1", "note": "[Gemfibrozil (Lopid)]", "reporter virus infection": 100}
{"smiles": "O=c1[nH]cnc2[nH]ncc12", "note": "[Allopurinol Sodium (Aloprim)]", "reporter virus infection": 89.7}
{"smiles": "COc1cc(/C=C/C(=O)CC(=O)/C=C/c2ccc(O)c(OC)c2)ccc1O", "note": "[Curcumin]", "reporter virus infection": 56.3}
{"smiles": "CC(=O)[C@H]1CC[C@H]2[C@@H]3CCC4=CC(=O)CC[C@]4(C)[C@H]3CC[C@]12C", "note": "[Progesterone (Prometrium)]", "reporter virus infection": 90.6}
{"smiles": "Clc1ccccc1C(c1ccccc1)(c1ccccc1)n1ccnc1", "note": "[Clotrimazole (Canesten)]", "reporter virus infection": 36.6}
{"smiles": "CC(=O)N[C@@H](CS)C(=O)O", "note": "[Acetylcysteine]", "reporter virus infection": 66.2}
{"smiles": "Cc1cn([C@@H]2C[C@@H](O)[C@H](CO)O2)c(=O)[nH]c1=O", "note": "[Telbivudine (Sebivo, Tyzeka)]", "reporter virus infection": 76}
